# Measurements published in the supplement of paper PMC8728848.
# The other results are listed elsewhere or left out.
# B1: PX9937F-bfa-516-16-516 (Bacteroides fragilis) (protein)
# chain: LDIDPTSSIADSNYWKTEAQFSTFNVGLHALLRECSFNFFLLGEPRADIYGDVPFGGEATQGMERLPFNTINKENTGISNFAGMYKVINQINLMIAKTKETTVLSEAGKNYYLGEAYGMRAYLYFHLLRSWGDVILYLDYTNGASLDLSNLSKAASPAEEVMKQIKEDITASEKGFGSDYSFKYGRYYWSMAATQMLKGEVYLWSGRQMGGGTADYTTAKTALQSIVSNANVSLQDDFSKVFAYNNKDNSEIIFSIRNAKDEYNMWDDRFRQNLVPQQAYMTSTYCNKEGVSFKDLPEGQLNGLIRLQIRYDLYNKAFRDGDTRKDASMTAVYQKQQDGTVKYIAPFCNKYQGVLLDGASQRSFLNDYPIYRYADCLLLLAEAKALLGEDPTAEINQVRERAYGKEFFEANKATLAYPNDKGDFYTDNKYMSGDEDPLEAILKERMREFMFEGKRWYDLRLLGADYVTKRTSAVATRLLWPINESVLTDNPALKQTPGYQN
# Assays:
# Assay in all cases: glycan array binding signal (z-score within array); higher = stronger binding
# Settings in all cases: glycan notation: IUPAC condensed, linker removed
# [1] = target: Neu5Ac(a2-6)Gal(b1-4)GlcNAc(b1-3)Gal(b1-4)GlcNAc(b1-3)GalNAc
# Procedure, shortened: (§1)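 The Consortium for Functional Glycomics database supplied 3228 glycan arrays, of which those lacking an available protein sequence were dropped. The binding signal, a within-array Z-score, was averaged across arrays of the same protein sequence and across linkers. Negative scores can be read as non-binding.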
# [2] = target: Neu5Ac(a2-6)Gal(b1-4)GlcNAc(b1-3)Gal(b1-4)GlcNAc(b1-3)[Neu5Ac(a2-6)Gal(b1-4)GlcNAc(b1-3)Gal(b1-4)GlcNAc(b1-6)]GalNAc
# Procedure, shortened: as §1
# [3] = target: Neu5Ac(a2-6)Gal(b1-4)GlcNAc(b1-3)Gal(b1-4)GlcNAc(b1-6)[Gal(b1-3)]GalNAc
# Procedure, shortened: as §1
# [4] = target: Neu5Ac(a2-6)Gal(b1-4)GlcNAc(b1-3)Gal(b1-4)[Fuc(a1-3)]GlcNAc(b1-3)Gal(b1-4)[Fuc(a1-3)]GlcNAc
# Procedure, shortened: as §1
# [5] = target: Neu5Ac(a2-6)Gal(b1-4)GlcNAc(b1-3)GalNAc
# Procedure, shortened: as §1
# [6] = target: Neu5Ac(a2-6)Gal(b1-4)GlcNAc(b1-3)[Neu5Ac(a2-6)Gal(b1-4)GlcNAc(b1-6)]GalNAc
# Procedure, shortened: as §1
# [7] = target: Neu5Ac(a2-6)Gal(b1-4)GlcNAc(b1-6)GalNAc
# Procedure, shortened: as §1
# [8] = target: Neu5Ac(a2-6)Gal(b1-4)GlcNAc(b1-6)[Gal(b1-3)GlcNAc(b1-3)]Gal(b1-4)Glc
# Procedure, shortened: as §1
# [9] = target: Neu5Ac(a2-6)Gal(b1-4)GlcNAc(b1-6)[Gal(b1-3)]GalNAc
# Procedure, shortened: as §1
# [10] = target: Neu5Ac(a2-6)Gal(b1-4)GlcNAc6S
# Procedure, shortened: as §1
# Neu5Ac(a2-6)GalNAc = target: Neu5Ac(a2-6)GalNAc
# Procedure, shortened: as §1
# [11] = target: Neu5Ac(a2-6)GalNAc(b1-4)GlcNAc
# Procedure, shortened: as §1
# [12] = target: Neu5Ac(a2-6)GalNAc(b1-4)GlcNAc6S
# Procedure, shortened: as §1
# [13] = target: Neu5Ac(a2-6)GlcNAc(b1-4)GlcNAc
# Procedure, shortened: as §1
# [14] = target: Neu5Ac(a2-6)GlcNAc(b1-4)GlcNAc(b1-4)GlcNAc
# Procedure, shortened: as §1
# Neu5Ac(a2-8)Neu5Ac = target: Neu5Ac(a2-8)Neu5Ac
# Procedure, shortened: as §1
# [15] = target: Neu5Ac(a2-8)Neu5Ac(a2-3)Gal(b1-3)GalNAc(b1-4)[Neu5Ac(a2-3)]Gal(b1-4)Glc
# Procedure, shortened: as §1
# [16] = target: Neu5Ac(a2-8)Neu5Ac(a2-3)Gal(b1-3)GalNAc(b1-4)[Neu5Ac(a2-8)Neu5Ac(a2-3)]Gal(b1-4)Glc
# Procedure, shortened: as §1
# [17] = target: Neu5Ac(a2-8)Neu5Ac(a2-3)Gal(b1-4)Glc
# Procedure, shortened: as §1
# [18] = target: Neu5Ac(a2-8)Neu5Ac(a2-3)Gal(b1-4)GlcNAc
# Procedure, shortened: as §1
# [19] = target: Neu5Ac(a2-8)Neu5Ac(a2-3)[Gal(b1-3)GalNAc(b1-4)]Gal(b1-4)Glc
# Procedure, shortened: as §1
# [20] = target: Neu5Ac(a2-8)Neu5Ac(a2-3)[GalNAc(b1-4)]Gal(b1-4)Glc
# Procedure, shortened: as §1
# [21] = target: Neu5Ac(a2-8)Neu5Ac(a2-8)Neu5Ac
# Procedure, shortened: as §1
# [22] = target: Neu5Ac(a2-8)Neu5Ac(a2-8)Neu5Ac(a2-3)Gal(b1-4)Glc
# Procedure, shortened: as §1
# [23] = target: Neu5Ac(a2-8)Neu5Ac(a2-8)Neu5Ac(a2-3)[Gal(b1-3)GalNAc(b1-4)]Gal(b1-4)Glc
# Procedure, shortened: as §1
# [24] = target: Neu5Ac(a2-8)Neu5Ac(a2-8)Neu5Ac(a2-3)[GalNAc(b1-4)]Gal(b1-4)Glc
# Procedure, shortened: as §1
# [25] = target: Neu5Ac(a2-8)Neu5Ac(a2-8)Neu5Ac(a2-8)Neu5Ac(a2-3)[GalNAc(b1-4)]Gal(b1-4)Glc
# Procedure, shortened: as §1
# [26] = target: Neu5Ac(a2-8)Neu5Gc(a2-3)Gal(b1-4)GlcNAc
# Procedure, shortened: as §1
# [27] = target: Neu5Ac(b2-6)Gal(b1-4)GlcNAc
# Procedure, shortened: as §1
# Neu5Ac(b2-6)GalNAc = target: Neu5Ac(b2-6)GalNAc
# Procedure, shortened: as §1
# [28] = target: Neu5Ac9Ac(a2-3)Gal(b1-3)GlcNAc
# Procedure, shortened: as §1
# [29] = target: Neu5Ac9Ac(a2-3)Gal(b1-4)GlcNAc
# Procedure, shortened: as §1
# [30] = target: Neu5Ac9Ac(a2-6)Gal(b1-4)GlcNAc
# Procedure, shortened: as §1
# [31] = target: Neu5Gc(a2-3)Gal(b1-3)GlcNAc
# Procedure, shortened: as §1
# [32] = target: Neu5Gc(a2-3)Gal(b1-3)[Fuc(a1-4)]GlcNAc
# Procedure, shortened: as §1
# Neu5Gc(a2-3)Gal(b1-4)Glc = target: Neu5Gc(a2-3)Gal(b1-4)Glc
# Procedure, shortened: as §1
# [33] = target: Neu5Gc(a2-3)Gal(b1-4)GlcNAc
# Procedure, shortened: as §1
# [34] = target: Neu5Gc(a2-3)Gal(b1-4)GlcNAc(b1-3)Gal(b1-4)GlcNAc(b1-2)Man(a1-3)[Neu5Gc(a2-3)Gal(b1-4)GlcNAc(b1-3)Gal(b1-4)GlcNAc(b1-2)Man(a1-6)]Man(b1-4)GlcNAc(b1-4)GlcNAc
# Procedure, shortened: as §1
# [35] = target: Neu5Gc(a2-3)Gal(b1-4)[Fuc(a1-3)]GlcNAc
# Procedure, shortened: as §1
# [36] = target: Neu5Gc(a2-6)Gal(b1-4)GlcNAc
# Procedure, shortened: as §1
# Neu5Gc(a2-6)GalNAc = target: Neu5Gc(a2-6)GalNAc
# Procedure, shortened: as §1
# [37] = target: Neu5Gc(a2-8)Neu5Ac(a2-3)Gal(b1-4)GlcNAc
# Procedure, shortened: as §1
# [38] = target: Neu5Gc(a2-8)Neu5Gc(a2-3)Gal(b1-4)GlcNAc
# Procedure, shortened: as §1
# [39] = target: Neu5Gc(a2-8)Neu5Gc(a2-3)Gal(b1-4)GlcNAc(b1-3)Gal(b1-4)GlcNAc
# Procedure, shortened: as §1
# [40] = target: Neu5Gc(a2-8)Neu5Gc(a2-6)Gal(b1-4)GlcNAc
# Procedure, shortened: as §1
# [41] = target: Neu5Gc(b2-6)Gal(b1-4)GlcNAc
# Procedure, shortened: as §1
binder,measurement,setting,value
B1,glycan array binding signal (z-score),[1],-0.249
same,glycan array binding signal (z-score),[2],-0.28
same,glycan array binding signal (z-score),[3],-0.215
same,glycan array binding signal (z-score),[4],-0.008
same,glycan array binding signal (z-score),[5],-0.108
same,glycan array binding signal (z-score),[6],1.19
same,glycan array binding signal (z-score),[7],-0.031
same,glycan array binding signal (z-score),[8],-0.015
same,glycan array binding signal (z-score),[9],-0.116
same,glycan array binding signal (z-score),[10],-0.113
same,glycan array binding signal (z-score),Neu5Ac(a2-6)GalNAc,-0.134
same,glycan array binding signal (z-score),[11],-0.182
same,glycan array binding signal (z-score),[12],-0.093
same,glycan array binding signal (z-score),[13],-0.159
same,glycan array binding signal (z-score),[14],-0.357
same,glycan array binding signal (z-score),Neu5Ac(a2-8)Neu5Ac,0.026
same,glycan array binding signal (z-score),[15],-0.32
same,glycan array binding signal (z-score),[16],0.235
same,glycan array binding signal (z-score),[17],-0.213
same,glycan array binding signal (z-score),[18],-0.369
same,glycan array binding signal (z-score),[19],-0.045
same,glycan array binding signal (z-score),[20],0.196
same,glycan array binding signal (z-score),[21],-0.128
same,glycan array binding signal (z-score),[22],0.076
same,glycan array binding signal (z-score),[23],0.294
same,glycan array binding signal (z-score),[24],-0.062
same,glycan array binding signal (z-score),[25],0.051
same,glycan array binding signal (z-score),[26],-0.26
same,glycan array binding signal (z-score),[27],0.871
same,glycan array binding signal (z-score),Neu5Ac(b2-6)GalNAc,-0.264
same,glycan array binding signal (z-score),[28],-0.249
same,glycan array binding signal (z-score),[29],-0.392
same,glycan array binding signal (z-score),[30],-0.027
same,glycan array binding signal (z-score),[31],-0.064
same,glycan array binding signal (z-score),[32],-0.214
same,glycan array binding signal (z-score),Neu5Gc(a2-3)Gal(b1-4)Glc,0.158
same,glycan array binding signal (z-score),[33],-0.378
same,glycan array binding signal (z-score),[34],-0.201
same,glycan array binding signal (z-score),[35],0.037
same,glycan array binding signal (z-score),[36],-0.211
same,glycan array binding signal (z-score),Neu5Gc(a2-6)GalNAc,-0.079
same,glycan array binding signal (z-score),[37],-0.367
same,glycan array binding signal (z-score),[38],-0.24
same,glycan array binding signal (z-score),[39],-0.091
same,glycan array binding signal (z-score),[40],-0.476
same,glycan array binding signal (z-score),[41],0.089
